Source: paper PMC12820563
The list shows a part of the results. The list includes weakly bound sequences.

Each sequence was assayed against T1, MBP-FoxP3dN (UniProt Q99JB6) (assay: PD-seq (MBP pull-down with sequencing)). Conditions: 20 mM Tris-HCl pH 7.5, 100 mM NaCl, 1.5 mM MgCl2, 0.4 uM protein, 0.1 uM dsDNA library, 30 min, room temperature, amylose pull-down; high values mean tight binding; double strand, one strand shown.
T1 sequence: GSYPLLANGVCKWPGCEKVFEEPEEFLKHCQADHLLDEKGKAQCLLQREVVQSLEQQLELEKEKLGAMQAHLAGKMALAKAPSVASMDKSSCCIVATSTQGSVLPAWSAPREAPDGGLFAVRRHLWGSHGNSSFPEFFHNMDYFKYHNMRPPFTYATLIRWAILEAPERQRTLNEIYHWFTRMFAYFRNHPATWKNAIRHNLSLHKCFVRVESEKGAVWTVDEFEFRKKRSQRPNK

| Sequence | binding signal (RPM ratio (pull-down/input)) |
| --- | --- |
| GATGATTGTTCTCCCAGCTGATGAATTCTTACAGTCGAGTAAACAAATTTTCCTAATCTTTCTGTTCAAGCGCCATCTAC | 0.257 |
| GATGATTGTTCTCCCAGCTGATGAATTTACCCAATCGAGTAAACAAATTTTCCTAATCTTTCTGTTCAAGCGCCATCTAC | 0.58 |
| GATGATTGTTCTCCCAGCTGATGAATTGCGTGAGTCGAGTAAACAAATTTTCCTAATCTTTCTGTTCAAGCGCCATCTAC | 1.11 |
| GATGATTGTTCTCCCAGCTGATGAATTAACAAGATCGAGTAAACAAATTTTCCTAATCTTTCTGTTCAAGCGCCATCTAC | 0.24 |
| GATGATTGTTCTCCCAGCTGATGAATTGAGTGCCTCGAGTAAACAAATTTTCCTAATCTTTCTGTTCAAGCGCCATCTAC | 0.963 |
| GATGATTGTTCTCCCAGCTGATGAATTTGGTTTATCGAGTAAACAAATTTTCCTAATCTTTCTGTTCAAGCGCCATCTAC | 3.48 |
| GATGATTGTTCTCCCAGCTGATGAATTTCGAGGTTCGAGTAAACAAATTTTCCTAATCTTTCTGTTCAAGCGCCATCTAC | 0.415 |
| GATGATTGTTCTCCCAGCTGATGAATTCGAATAGTCGAGTAAACAAATTTTCCTAATCTTTCTGTTCAAGCGCCATCTAC | 0.369 |
| GATGATTGTTCTCCCAGCTGATGAATTCTTCTGTTCGAGTAAACAAATTTTCCTAATCTTTCTGTTCAAGCGCCATCTAC | 0.31 |
| GATGATTGTTCTCCCAGCTGATGAATTTTAACATTCGAGTAAACAAATTTTCCTAATCTTTCTGTTCAAGCGCCATCTAC | 0.699 |
| GATGATTGTTCTCCCAGCTGATGAATTCCCTAAGTCGAGTAAACAAATTTTCCTAATCTTTCTGTTCAAGCGCCATCTAC | 0.178 |
| GATGATTGTTCTCCCAGCTGATGAATTTACTTACTCGAGTAAACAAATTTTCCTAATCTTTCTGTTCAAGCGCCATCTAC | 2.83 |
| GATGATTGTTCTCCCAGCTGATGAATTATCCCGCTCGAGTAAACAAATTTTCCTAATCTTTCTGTTCAAGCGCCATCTAC | 0.212 |
| GATGATTGTTCTCCCAGCTGATGAATTGTGACACTCGAGTAAACAAATTTTCCTAATCTTTCTGTTCAAGCGCCATCTAC | 3.18 |
| GATGATTGTTCTCCCAGCTGATGAATTTTTTGGGTCGAGTAAACAAATTTTCCTAATCTTTCTGTTCAAGCGCCATCTAC | 0.193 |
| GATGATTGTTCTCCCAGCTGATGAATTAACGGGCTCGAGTAAACAAATTTTCCTAATCTTTCTGTTCAAGCGCCATCTAC | 0.226 |
| GATGATTGTTCTCCCAGCTGATGAATTACCAAAGTCGAGTAAACAAATTTTCCTAATCTTTCTGTTCAAGCGCCATCTAC | 0.212 |
| GATGATTGTTCTCCCAGCTGATGAATTGTTAGGATCGAGTAAACAAATTTTCCTAATCTTTCTGTTCAAGCGCCATCTAC | 1.02 |
| GATGATTGTTCTCCCAGCTGATGAATTAAAGCCTTCGAGTAAACAAATTTTCCTAATCTTTCTGTTCAAGCGCCATCTAC | 1.74 |
| GATGATTGTTCTCCCAGCTGATGAATTACGCCTCTCGAGTAAACAAATTTTCCTAATCTTTCTGTTCAAGCGCCATCTAC | 5.99 |

| Sequence | binding signal (RPM ratio (pull-down/input)) |
| --- | --- |
| GATGATTGTTCTCCCAGCTGATGAATTTGATATCTCGAGTAAACAAATTTTCCTAATCTTTCTGTTCAAGCGCCATCTAC | 3.49 |
| GATGATTGTTCTCCCAGCTGATGAATTGGCTTCTTCGAGTAAACAAATTTTCCTAATCTTTCTGTTCAAGCGCCATCTAC | 0.562 |
| GATGATTGTTCTCCCAGCTGATGAATTGATATGTTCGAGTAAACAAATTTTCCTAATCTTTCTGTTCAAGCGCCATCTAC | 1.34 |
| GATGATTGTTCTCCCAGCTGATGAATTGGGCTGTTCGAGTAAACAAATTTTCCTAATCTTTCTGTTCAAGCGCCATCTAC | 0.719 |
| GATGATTGTTCTCCCAGCTGATGAATTCTGCGAATCGAGTAAACAAATTTTCCTAATCTTTCTGTTCAAGCGCCATCTAC | 0.31 |
| GATGATTGTTCTCCCAGCTGATGAATTCGCGTCGTCGAGTAAACAAATTTTCCTAATCTTTCTGTTCAAGCGCCATCTAC | 1.04 |
| GATGATTGTTCTCCCAGCTGATGAATTTCTTTGATCGAGTAAACAAATTTTCCTAATCTTTCTGTTCAAGCGCCATCTAC | 0.325 |
| GATGATTGTTCTCCCAGCTGATGAATTTTTATACTCGAGTAAACAAATTTTCCTAATCTTTCTGTTCAAGCGCCATCTAC | 0.36 |
| GATGATTGTTCTCCCAGCTGATGAATTGAGAATTTCGAGTAAACAAATTTTCCTAATCTTTCTGTTCAAGCGCCATCTAC | 1.13 |
| GATGATTGTTCTCCCAGCTGATGAATTTCCTACTTCGAGTAAACAAATTTTCCTAATCTTTCTGTTCAAGCGCCATCTAC | 0.259 |
| GATGATTGTTCTCCCAGCTGATGAATTCAATCGATCGAGTAAACAAATTTTCCTAATCTTTCTGTTCAAGCGCCATCTAC | 0.298 |
| GATGATTGTTCTCCCAGCTGATGAATTTCTTTCTTCGAGTAAACAAATTTTCCTAATCTTTCTGTTCAAGCGCCATCTAC | 0.349 |
| GATGATTGTTCTCCCAGCTGATGAATTAAGACGGTCGAGTAAACAAATTTTCCTAATCTTTCTGTTCAAGCGCCATCTAC | 0.236 |
| GATGATTGTTCTCCCAGCTGATGAATTGGTTCAGTCGAGTAAACAAATTTTCCTAATCTTTCTGTTCAAGCGCCATCTAC | 0.288 |
| GATGATTGTTCTCCCAGCTGATGAATTTGGGGGTTCGAGTAAACAAATTTTCCTAATCTTTCTGTTCAAGCGCCATCTAC | 0.751 |
| GATGATTGTTCTCCCAGCTGATGAATTCCGATTTTCGAGTAAACAAATTTTCCTAATCTTTCTGTTCAAGCGCCATCTAC | 0.861 |
| GATGATTGTTCTCCCAGCTGATGAATTGCTTGAGTCGAGTAAACAAATTTTCCTAATCTTTCTGTTCAAGCGCCATCTAC | 0.46 |
| GATGATTGTTCTCCCAGCTGATGAATTAACGAAATCGAGTAAACAAATTTTCCTAATCTTTCTGTTCAAGCGCCATCTAC | 0.313 |
| GATGATTGTTCTCCCAGCTGATGAATTCAGCGATTCGAGTAAACAAATTTTCCTAATCTTTCTGTTCAAGCGCCATCTAC | 0.973 |
| GATGATTGTTCTCCCAGCTGATGAATTGTACACATCGAGTAAACAAATTTTCCTAATCTTTCTGTTCAAGCGCCATCTAC | 1.75 |
